Source: paper PMC6641210
Read-outs that look alike come from different tables or passages of the source.

What was measured:
Experiment in all cases: SPR
[1] = biological target: chimeric rabbit IgG: variable regions of human 25G1 on rabbit IgG heavy and rabbit kappa (K2) light chain constant regions (human | rabbit (Oryctolagus cuniculus))
[2] = biological target: human IgG1 anti-Tissue Factor antibody 25G1 with a kappa light chain (human)
[3] = biological target: chimeric rabbit IgG: variable regions of human 25G1 on rabbit IgG heavy and rabbit kappa (K2) light chain constant regions (human | rabbit (Oryctolagus cuniculus)); remark: listed apart in the source
[4] = biological target: human IgG1 anti-Tissue Factor antibody 25G1 with a kappa light chain (human); remark: listed apart in the source

Sequence of human IgG1 anti-Tissue Factor antibody 25G1 with a kappa light chain (human) (heavy, as listed by the source, chain 1 of 2): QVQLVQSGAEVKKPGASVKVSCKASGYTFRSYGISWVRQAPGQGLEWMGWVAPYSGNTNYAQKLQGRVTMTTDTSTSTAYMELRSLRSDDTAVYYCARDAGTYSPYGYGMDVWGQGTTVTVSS
Sequence of human IgG1 anti-Tissue Factor antibody 25G1 with a kappa light chain (human) (light, as listed by the source, chain 2 of 2): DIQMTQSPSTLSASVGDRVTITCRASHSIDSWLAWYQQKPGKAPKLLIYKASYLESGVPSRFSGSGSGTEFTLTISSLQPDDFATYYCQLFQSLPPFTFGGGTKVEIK
Sequence of chimeric rabbit IgG: variable regions of human 25G1 on rabbit IgG heavy and rabbit kappa (K2) light chain constant regions (human | rabbit (Oryctolagus cuniculus)) (heavy, as listed by the source, chain 1 of 2): as the sequence (heavy, as listed by the source, chain 1 of 2) above
Sequence of chimeric rabbit IgG: variable regions of human 25G1 on rabbit IgG heavy and rabbit kappa (K2) light chain constant regions (human | rabbit (Oryctolagus cuniculus)) (light, as listed by the source, chain 2 of 2): as the sequence (light, as listed by the source, chain 2 of 2) above

## human FcγRIIIA-V158 (high affinity allele) extracellular domain fragment (letters omitted) (receptor; modification not given)
[1]
  Kd: 181 nM
  koff: 0.26 s⁻¹
  kon: 1.44e+06 M⁻¹ s⁻¹
[2]
  koff: 0.22 s⁻¹
  kon: 1.89e+06 M⁻¹ s⁻¹
[3]
  Kd: 172 nM
[4]
  Kd: 123 nM
